# Results reported in US12129305B2, “Targeting CLPTM1L for treatment and prevention of cancer” (The Medical College of Wisconsin, Inc., priority 2018, dated 2024).
# B1: 102-5: Human anti-CRR9/CLPTM1L IgG1; heavy chain V SEQ ID NO:30, light chain V SEQ ID NO:31 (antibody, V domains shown)
# VH: EVQLLESGGGLVQPGGSLRLSCAASGFSFSSYEMNWVRQAPGKGPEWISYISSGGGTIYYADSVRGRFTISRDNSNNTLYLQMNSLRPDDTAIYYCARDRGRKWLQLLFDSWGQGTLVTVSS
# VL: QAVLTQPPSASGTPGQKVTISCSGSSSNIGSNTVNWYQQLPGTAPKLLIYTNNQRPSGVPDRFSGSKSGASASLAISGLQSKDEADYYCAAWDDSLNGWVFGGGTKLTVLG
# modifications: Synthetic- Anti-CRR9/CLPTM1L clone 102-5 heavy chain V; Synthetic- Anti-CRR9/CLPTM1L clone 102-5 light chain V
# What was measured:
# [1] = tested on: ID8-luc ovarian tumor cells; test: ID8-luc orthotopic syngeneic ovarian isograft model; type: in vivo, C57bl/6 mice
# Method: ID8-luc model: Five-week-old C57bl/6 mice (Jackson labs strain 664) were acclimated for one week and injected intraperitoneally with […] luciferase expressing ID8 syngeneic ovarian tumor cells suspended in 200 μL of PBS under Medical College of Wisconsin animal protocol AUA6339. One week after injection, antibodies and/or chemotherapeutic agents were administered intraperitoneally at the indicated doses. Chemotherapeutic doses or vehicle were administered one day before control or therapeutic antibody doses. Imaging and analysis of luciferin radiance was done up to twice weekly on an IVIS Spectrum-CT Imaging System equipped with thermoelectrically-cooled CCD camera. Mice were monitored twice weekly for weight and signs of morbidity. Mice were euthanized after 45 days or upon signs of morbidity. Animal studies were conducted using the standards for humane treatment of animals as described in the U.S. Public Health Service Policy on Humane Care and Use of Laboratory Animals.
# With disseminated peritoneal disease being the most common presentation upon recurrence of ovarian carcinoma, we utilized an orthotopic isograft model of disseminated peritoneal ovarian cancer. Human anti-CLPTM1L binding to luciferase-expressing ID8 ovarian tumor cells (ID8-luc) was detected by flow cytometry (FIG. 31A). […] Tumor load was monitored by luciferin luminescence using whole body imaging. […]
# [2] = tested on: Caspase-3 cleavage and Akt phosphorylation in SL3cis; test: Western blotting of SL3cis lysates for caspase cleavage and Akt phosphorylation; type: cell-based, human
# Method: (A) A2780 apoptotic killing (casp 3/7 live imaging) after 36 hour mAb treatment (scFv clones 102-4a left, 102-5a right) and 24-hour carboplatin treatment. (B) Dose-response to up to 20 μM carboplatin in resistant A2780 cells treated with either control IgG1 or 102-5, relative to 0 carboplatin controls. (C) Kinetic killing assay (live imaging) in A2780 with human anti-CLP™1L scFv and/or 10 μM carboplatin treatment. *p<0.05, **p<0.005, ***p<0.0005. (D) Western blotting and densitometry for Akt and phospho-Akt (T308) in A2780 andA2780cis. (E) Cisplatin viability (MTT) inhibition curves for SL3 sensitive (parental) and resistant (SL3cis) tumor spheroids, pAkt (T308) and total Akt western blots on SL3 and SL3cis spheroid lysates (inset). (F) Viability (MTT) of SL3cis spheroids after 16 days of growth, treated with cisplatin and/or 102-5 anti-CLPTM1L at the indicated concentrations beginning at 4 days post-seeding. *p<0.05, **p<0.005. (G) Photomicrographs of SL3cis spheroids after 16 days of growth, treated with cisplatin and/or 102-5 anti-CLPTM1L. […]
# Cells were lysed with 100 μL of 1× NP40 lysis buffer containing proteinase inhibitors, sheared 10 times with a 28-gauge needle, spun at 16,000×g for 30 minutes, normalized by protein concentration as determined by the Bradford method, and the supernatant boiled for 5 minutes. Twenty microliters of normalized lysate were resolved by SDS-PAGE on 10% acrylamide gels at 150 volts for 1 hour, transferred by iBlot dry transfer (Life Technologies), blocked for 2 hours with TBST 10% milk, incubated with primary antibodies at 1:1000 in TBST 5% milk at 4C overnight with rocking, washed 3×5 minutes with TBST, incubated with secondary anti-rabbit-HRP (Santa Cruz Biotechnology) or goat anti-human-HRP (Invitrogen MH1715) at 1:10,000 in TBST 5% milk for 2 hours with rocking, washed 5×10 minutes with TBST, and signal analyzed using a Biorad Chemidoc XRS. […] Quantitation of Western analyses of three independent cultures was done using Image J software (24).
# [3] = tested on: Akt phosphorylation at threonine 308 in A2780 and A2780-cis; test: Western blotting for Akt and phospho-Akt (T308); type: cell-based, human
# Method: (A) A2780 apoptotic killing (casp 3/7 live imaging) after 36 hour mAb treatment (scFv clones 102-4a left, 102-5a right) and 24-hour carboplatin treatment. (B) Dose-response to up to 20 μM carboplatin in resistant A2780 cells treated with either control IgG1 or 102-5, relative to 0 carboplatin controls. (C) Kinetic killing assay (live imaging) in A2780 with human anti-CLP™1L scFv and/or 10 μM carboplatin treatment. *p<0.05, **p<0.005, ***p<0.0005. (D) Western blotting and densitometry for Akt and phospho-Akt (T308) in A2780 andA2780cis. […]
# Cells were lysed with 100 μL of 1× NP40 lysis buffer containing proteinase inhibitors, sheared 10 times with a 28-gauge needle, spun at 16,000×g for 30 minutes, normalized by protein concentration as determined by the Bradford method, and the supernatant boiled for 5 minutes. Twenty microliters of normalized lysate were resolved by SDS-PAGE on 10% acrylamide gels at 150 volts for 1 hour, transferred by iBlot dry transfer (Life Technologies), blocked for 2 hours with TBST 10% milk, incubated with primary antibodies at 1:1000 in TBST 5% milk at 4C overnight with rocking, washed 3×5 minutes with TBST, incubated with secondary anti-rabbit-HRP (Santa Cruz Biotechnology) or goat anti-human-HRP (Invitrogen MH1715) at 1:10,000 in TBST 5% milk for 2 hours with rocking, washed 5×10 minutes with TBST, and signal analyzed using a Biorad Chemidoc XRS. […]
molecule,measurement,setting,value
B1,relative tumor load,"[1]; 10 mg/kg weekly I. P., day 42, control 2.45-fold, p<0.005",0.90 fold
same,tumor load,"[1]; combination: carboplatin following anti-CLPTM1L, over 35 days, p<0.05",0.23 fold
same,Akt phosphorylation at threonine 308,[2]; SL3cis spheroids,abrogated
same,Caspase-3 cleavage,"[2]; SL3cis spheroids, 16 days of growth",Caspase-3 cleavage was induced
same,Akt phosphorylation at threonine 308,[2]; monolayer cultures of SL3cis cells,dose-dependent inhibition of Akt phosphorylation at threonine 308
same,Akt phosphorylation at threonine 308,[3],decreased Akt phosphorylation at threonine 308
